We go through 44 sequences from the supplement of paper PMC11417369.

± gives the standard deviation of the averaged measurements. This is one part of the list.

The test has as its system PfAP2-EXP AP2 domain (GST-tagged). Briefly: gcPBM binding intensity (ln(normalized median fluorescence intensity)); higher = stronger DNA binding. In short, it runs like this:
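Using an Agilent 4 × 180k array, primer-extended double-stranded 36-bp intergenic genomic probes and negative controls were exposed for 1 h to GST-fused P. falciparum DNA-binding domains expressed in E. coli. Binding was carried out in 1× PBS with 1% milk, 0.2 mg/ml BSA, 0.5% salmon testes DNA and 0.03% Triton X-100, and protein was detected with Alexa488 anti-GST antibody and a 488 nm scan. Binding intensity is the highest Masliner-normalised natural-log median intensity across replicate spots of either probe orientation.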
As to “TTCTGTATACGGTGTGCACACAATTAAAAAAAAAAA [CACACA_site1416]”, the “gcPBM binding intensity (ln)” value amounted to 8.79 ± 0.042.

Turning to “TTAAATAACCTCAAGGATAAGAAAAAATTAAAAATT [CACACA_negctrl_site1336]”, the “gcPBM binding intensity (ln)” value was determined as 8.28 ± 0.42.

On to “CTATTTAAAATTTGAACACACATTATTTATTTTAAA [CACACA_site3114]”, for which the “gcPBM binding intensity (ln)” value came to 8.3 ± 0.45.

Consider “GAAATAATAAAATCGACACACAAAAAAAAAAAAAAA [CACACA_site3476]”, for which the “gcPBM binding intensity (ln)” value worked out at 8.2 ± 0.62.

Take CTTTATATATATTGCGTGCACATTTTTTTTTTTTTT: the “gcPBM binding intensity (ln)” value stood at 9.01 ± 0.35.

As for “TCAATATATATAAGAAGTACATGTGAATGAAAAAAA [XGTACX_site1674]”, the “gcPBM binding intensity (ln)” value was 9.14 ± 0.67.

Turning to “AATAAATACAAAAATGTACACACATATATATATTTT [CACACA_site9167]”, the “gcPBM binding intensity (ln)” value was determined as 8.39 ± 0.37.

On to “TTGTAACAAAAGTACACACACATTTCTATAAATTTT [CACACA_site2772]”, for which the “gcPBM binding intensity (ln)” value came out at 8.51 ± 0.19.

In the case of CATTTTATTTTCTTTGTGCACAAAAATATTTTTTCT, the “gcPBM binding intensity (ln)” value was determined as 9.35 ± 0.13.

As for “GGATTTTACCATAGCACACATATATGAATATTTTTC [CACACA_site1814]”, the “gcPBM binding intensity (ln)” value was 8.68 ± 0.26.

“TTTATATACTATCAACGTACAAAAGTAATAAAAATA [XGTACX_site4343]”: the “gcPBM binding intensity (ln)” value was determined as 8.71 ± 0.48.

Consider “TGTTCTAATTTTAATTGTACATATATACATATATAT [XGTACX_site7290]”, for which the “gcPBM binding intensity (ln)” value came to 8.46 ± 0.35.

For “AAAGTTATGATATATACACACATATAAATATTAAAT [CACACA_site6361]”, the “gcPBM binding intensity (ln)” value worked out at 8.51 ± 0.38.

Consider “GTAAATATATATATATATATATATATATATATATAT [GTGCAC_negctrl_site239]”, for which the “gcPBM binding intensity (ln)” value was 10.1 ± 0.34.

For the sequence “TTATACCTATATTTAACACACATTTGATAAAGTGCC [CACACA_site6732]”, the “gcPBM binding intensity (ln)” value turned out to be 8.3 ± 0.27.

Take “TTGTAGGTAAATATGTGTACGCATTATTATTCTTAA [XGTACX_site216]”: the “gcPBM binding intensity (ln)” value was 8.55 ± 0.24.

With “AAAAAATTTGTTTATTGTACAGAAAGAATTATTATA [XGTACX_site6549]”, the “gcPBM binding intensity (ln)” value was determined as 8.37 ± 0.39.

Regarding “GAGAGAGAAATAAAAAGTACATACATATATATACAT [XGTACX_site2267]”, the “gcPBM binding intensity (ln)” value was 8.49 ± 0.4.

Take “ACCATTTTTATGTATAAACACACGTACCCGCACTAA [CACACA_site1604]”: the “gcPBM binding intensity (ln)” value was 8.78 ± 0.35.

Turning to “AAAAAAAACAGACACATACACACAAAAATGTTATAA [CACACA_site82]”, the “gcPBM binding intensity (ln)” value amounted to 8.46 ± 0.49.

As to “TGGAGATTTTTAAAGACACACAGGTAAGAATAATAA [CACACA_site1582]”, the “gcPBM binding intensity (ln)” value was found to be 8.81 ± 0.46.

For the sequence “AATATATAAATTGACACACACATATATACCTATATA [CACACA_site4803]”, the “gcPBM binding intensity (ln)” value stood at 8.51 ± 0.37.

With “CACAATGGTTTATATACACACTGTTGCAAATTCTTC [CACACA_site5659]”, the “gcPBM binding intensity (ln)” value amounted to 8.59 ± 0.61.

In the case of “AATATAAACACAAACACACACATATAGATTTATATA [CACACA_site6263]”, the “gcPBM binding intensity (ln)” value was 8.55 ± 0.38.

For the sequence “ATTATGCACGGACACACACACACACCCCTAAAAAAT [CACACA_site5426]”, the “gcPBM binding intensity (ln)” value came to 9.28 ± 0.25.

For the sequence “TGTTAACCACAAAAATAAAATAAAATAAAAATAATA [XGTACX_negctrl_site535]”, the “gcPBM binding intensity (ln)” value is 8.38 ± 0.33.

As for “TATGCTATTATATATGTACACACCAATTTATTTATA [CACACA_site3918]”, the “gcPBM binding intensity (ln)” value was 8.79 ± 0.32.

As to “TTTCCCATAGGAAAAACACACATATATTATAGATAA [CACACA_site7019]”, the “gcPBM binding intensity (ln)” value was determined as 8.24 ± 0.61.

Turning to “TGATAAATATTATGTTGTACTTTCTGCCCTTCACAT [XGTACX_site5168]”, the “gcPBM binding intensity (ln)” value stood at 8.76 ± 0.35.

On to “TTTTGATGCTTTAAATGTACAAGGGTTCTTATGAAA [XGTACX_site831]”, for which the “gcPBM binding intensity (ln)” value was 8.35 ± 0.4.

As for “GAAAAAAAAAGTTAAGCACACACATGAATAAATAAT [CACACA_site8179]”, the “gcPBM binding intensity (ln)” value is 8.9 ± 0.47.

As to “GAGAGAGAAATATGCACACATAAGGGAAATAAATAA [CACACA_site1153]”, the “gcPBM binding intensity (ln)” value amounted to 8.77 ± 0.3.

Consider “AAAAAAAAAAAATAGAAAAAAAAATAAAATAAAAAA [CACACA_negctrl_site562]”, for which the “gcPBM binding intensity (ln)” value stood at 8.21 ± 0.46.

On to “TGTATATAATTTATATGTACATATATTTTATTTTGT [XGTACX_site1905]”, for which the “gcPBM binding intensity (ln)” value was determined as 8.56 ± 0.26.

As to “AAACCAAAAATAACACGTACAAAAATAAAAAGTATA [XGTACX_site4261]”, the “gcPBM binding intensity (ln)” value was found to be 9.04 ± 0.4.

As to “AAAACATATTTTAAAAGTACTTGAAAAAAAATTTTC [XGTACX_site3940]”, the “gcPBM binding intensity (ln)” value amounted to 8.22 ± 0.25.

For “TATATATATATATGTGCACACCAATTGTATGTAATA [CACACA_site3888]”, the “gcPBM binding intensity (ln)” value turned out to be 10.1 ± 0.33.

Take “AATATAAAATCAAGAAATTAAAAAAAAACAGAAAAC [CACACA_negctrl_site1004]”: the “gcPBM binding intensity (ln)” value was found to be 8.93 ± 0.49.

“ACAAGATAATAGAGAAGTACTAATAAACATACACAA [XGTACX_site6617]”: the “gcPBM binding intensity (ln)” value was 8.94 ± 0.35.

With “TCATAAAAGATTAAGTGTACATGTGCTACTCTTATA [XGTACX_site6255]”, the “gcPBM binding intensity (ln)” value was found to be 8.34 ± 0.25.

Regarding “TATGTTCCTTTTTGTTGTACTGAAAAATTATGTTCA [XGTACX_site3981]”, the “gcPBM binding intensity (ln)” value is 8.93 ± 0.23.

Consider “ATAATATAAATTAATTTACACACTAATAAATATATA [CACACA_site9259]”, for which the “gcPBM binding intensity (ln)” value was determined as 8.43 ± 0.33.

“ATTTTAAATTTATCTGTGCACAGTATTATATAAGCA [GTGCAC_site9806]”: the “gcPBM binding intensity (ln)” value was determined as 8.73 ± 0.3.

In the case of “TATATATATATATATAGTACGCACACATAGTTGCAA [XGTACX_site5875]”, the “gcPBM binding intensity (ln)” value worked out at 10.1 ± 0.43.
